Reference: PubChem BioAssay AID1347165 (National Center for Advancing Translational Sciences (NCATS), 2019)
Among all 220,000 compounds or so, about 5,700 (2.6%) were called active. Inconclusive results, whose numbers are uncertain, are shown with a selection of clear calls. Calls follow the shape of the dose curve; as a rule, active = well fitted inhibition curve with a large enough effect; inconclusive = small, poorly fitted or top-dose-only effect; inactive = no such curve, though single readings can be large or run the other way. Where the call is inconclusive, the potency comes from a doubtful curve fit.

target: Lysine-specific demethylase 5B (Homo sapiens) (UniProt Q9UGL1); test: Primary screen for KDM5B Histone Demethylases FDH-coupled qHTS; settings: FDH-coupled NADH fluorescence (FDH is formaldehyde dehydrogenase); activity change, negative = inhibition: at 57.7 µM (top of the series) unless noted; also: nearly all actives have a fitted effect of over 70% in size; as to activity change, negative = inhibition: 0% is about no effect
Sequence of UniProt Q9UGL1 (Q9UGL1 whole entry, looked up): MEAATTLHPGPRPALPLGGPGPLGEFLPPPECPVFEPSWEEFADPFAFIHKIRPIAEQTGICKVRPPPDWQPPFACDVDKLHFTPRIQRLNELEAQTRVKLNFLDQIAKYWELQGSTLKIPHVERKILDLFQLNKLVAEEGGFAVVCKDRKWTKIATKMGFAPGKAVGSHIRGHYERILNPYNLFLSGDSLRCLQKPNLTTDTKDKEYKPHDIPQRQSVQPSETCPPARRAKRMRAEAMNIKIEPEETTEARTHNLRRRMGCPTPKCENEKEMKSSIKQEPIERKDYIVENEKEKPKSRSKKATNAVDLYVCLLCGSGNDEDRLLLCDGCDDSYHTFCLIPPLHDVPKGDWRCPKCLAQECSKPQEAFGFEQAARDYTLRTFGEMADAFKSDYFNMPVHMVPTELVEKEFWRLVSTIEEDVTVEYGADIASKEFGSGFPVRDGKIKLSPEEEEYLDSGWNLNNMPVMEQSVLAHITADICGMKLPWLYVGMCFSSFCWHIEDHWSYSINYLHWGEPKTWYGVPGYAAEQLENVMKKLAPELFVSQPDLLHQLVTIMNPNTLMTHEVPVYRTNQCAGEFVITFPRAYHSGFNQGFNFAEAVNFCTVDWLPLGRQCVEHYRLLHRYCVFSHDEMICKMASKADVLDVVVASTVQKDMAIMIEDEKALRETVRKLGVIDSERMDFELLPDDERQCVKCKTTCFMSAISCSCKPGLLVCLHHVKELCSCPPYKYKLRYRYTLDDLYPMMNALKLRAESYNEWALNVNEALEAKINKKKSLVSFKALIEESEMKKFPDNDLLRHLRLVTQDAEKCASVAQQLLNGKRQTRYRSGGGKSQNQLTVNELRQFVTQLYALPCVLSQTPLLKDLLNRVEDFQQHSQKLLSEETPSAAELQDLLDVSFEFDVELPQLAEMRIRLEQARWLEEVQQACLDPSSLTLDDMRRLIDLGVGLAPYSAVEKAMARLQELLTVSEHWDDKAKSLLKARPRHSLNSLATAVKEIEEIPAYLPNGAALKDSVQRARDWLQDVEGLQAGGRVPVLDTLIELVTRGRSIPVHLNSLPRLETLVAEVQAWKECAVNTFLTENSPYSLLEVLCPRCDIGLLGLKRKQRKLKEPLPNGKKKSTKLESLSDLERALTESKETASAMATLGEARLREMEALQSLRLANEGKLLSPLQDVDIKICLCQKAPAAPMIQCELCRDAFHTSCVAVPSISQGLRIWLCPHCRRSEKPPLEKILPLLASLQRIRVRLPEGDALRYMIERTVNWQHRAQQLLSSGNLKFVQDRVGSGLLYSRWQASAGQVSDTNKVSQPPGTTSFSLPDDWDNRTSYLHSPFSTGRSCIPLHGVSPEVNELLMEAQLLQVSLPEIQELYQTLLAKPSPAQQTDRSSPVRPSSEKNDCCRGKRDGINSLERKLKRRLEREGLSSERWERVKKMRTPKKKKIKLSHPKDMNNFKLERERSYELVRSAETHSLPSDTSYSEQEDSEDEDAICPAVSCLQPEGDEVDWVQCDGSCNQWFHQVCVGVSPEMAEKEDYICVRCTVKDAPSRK
In short: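 Compound dilutions met 200 nM (final) KDM5BΔAP for 10 min at room temperature before substrate addition. The substrate mix held 12.5 µM H3K4me3 with cofactors 25 µM α-ketoglutarate and 50 µM Fe²⁺. NADH signal gain over 30 min defined activity.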
Potency is read from the fitted curve at half-maximal effect; tags tell the direction and shape of the fitted curve.

| Compound | activity change, negative = inhibition | Potency |
| --- | --- | --- |
| CNC(=O)[C@H]1C[C@H](Oc2cccnc2)CN1S(=O)(=O)Cc1ccccc1F | inactive: 20.5% | – |
| Cc1cccc(-n2nc(C)c(CCC(=O)NC3CC3)c2Oc2ccccc2)c1 | inactive: -7.79% | – |
| COc1cccc(C2=NN3C(C2)c2cccc(OC)c2OC32CCN(S(C)(=O)=O)CC2)c1 (stereo not given) | inactive: 31.7% | – |
| CCCc1nc2oc3c(NCC(C)O)ncnc3c2c2c1CCCC2 (stereo not given) | – | inconclusive: 28.2 µM [inhibitor, partial curve, poor fit] |
| CN(C)C(=O)c1cccnc1OC1CCN(C(=O)c2ccc(OC(F)(F)F)cc2)C1 (stereo not given) | inactive: -15.2% | – |
| Cc1ccc(CNC(=O)c2ccc(NC(=O)N3CCSc4ncccc43)cc2)cc1 | – | inconclusive: 31.6 µM [inhibitor, partial curve, poor fit] |
| CN(C)C(=O)CCSc1ccc(F)cc1 | inactive: 15.8% | – |
| CC1CCC(NC(=O)c2ccccc2S(C)(=O)=O)CC1 (stereo not given) | inactive: 12.5% | – |
| COc1cccc(Nc2ncc3c(n2)C(C)(C(=O)Nc2nc(C)cs2)CC3)c1 (stereo not given) | – | active: 35.5 µM |
| COc1cccc(CN2CCC[C@@H](O)[C@H](NC(=O)c3ccc(OCc4ccccc4)cc3)C2)c1 | inactive: -10% | – |
| COc1ccc(C(=O)NC2CCN(c3ccc(=O)n(C)n3)CC2)c(OC)n1 | – | inconclusive: 35.5 µM [inhibitor, single point] |
| O=C(Nc1cccc(Br)c1)c1ccccc1OCC1CCCO1 (stereo not given) | inactive: -0.119% | – |
| CC(C)CN(CC(C)C)C(=O)CC(c1ccccc1)c1ccccc1 | – | inconclusive: 25.1 µM [inhibitor, partial curve, poor fit] |
| Cc1cccc(-n2c(=O)c3c(c4cc(C)ccc4n3C)n(CC(=O)N3CCCC3)c2=O)c1 | – | inconclusive: 0.708 µM [inhibitor, full curve, poor fit] |
| COc1ccc2[nH]c(C(=O)Nc3ccc(F)cc3Br)cc2c1 | – | inconclusive: 39.8 µM [inhibitor, single point] |
| CCCCC(=O)N1CCN(c2nc(-c3ccco3)c3c(c2C#N)CCCC3)CC1 | – | inconclusive: 2 µM [inhibitor, full curve, poor fit] |
| COc1ccccc1C(=O)NC1CCN(c2cc(-c3ccccc3)[nH]n2)C1 (stereo not given) | – | inconclusive: 8.91 µM [inhibitor, full curve, poor fit] |
| COc1cc2c(cc1OC)CN(c1cc(C3CC(O)C3)ncn1)CC2 (stereo not given) | – | inconclusive: 25.1 µM [inhibitor, single point] |
| COc1ccc(N2CCN(CCCNC(=O)c3cc(Nc4ccc(OC)cc4OC)nc4ccccc34)CC2)cc1 | – | inconclusive: 39.8 µM [inhibitor, single point] |
| CC(C)CCN1CC[C@@H]2OCC(=O)N(Cc3c[nH]c4ccccc34)[C@H]2CC1 | – | inconclusive: 31.6 µM [inhibitor, partial curve, poor fit] |
